# Test results published in the antibiotic and cytotoxicity screens of Wong et al. (2023).
# This is one part of the list.
# Assays:
# [1] = system: HSkMC (human skeletal muscle cells); test: cytotoxicity call (relative viability < 0.9); settings: 10 µM
# [2] = system: HepG2; test: cytotoxicity call (relative viability < 0.9); settings: 10 µM
# [3] = system: S. aureus RN4220; test: growth inhibition call (relative growth <= 0.2); settings: 50 µM
SMILES,cytotoxicity call [1],cytotoxicity call [2],growth inhibition call [3]
C[C@@H]1CN([C@H](C)CO)C(=O)c2cc(NS(=O)(=O)c3ccc(Cl)cc3)ccc2O[C@@H]1CN(C)C(=O)Nc1cccc2ccccc12,inactive,inactive,inactive
Cc1noc(C)c1NC(=O)Nc1ccc2c(c1)CC(=O)N([C@@H](C)CO)C[C@@H](C)[C@H](CN(C)C(=O)Nc1ccc(C(F)(F)F)cc1)O2,inactive,inactive,inactive
O=C(C[C@H]1CC[C@H]2[C@@H](COC[C@H](O)CN2C(=O)c2cccnc2)O1)NCc1ccc(-c2ccccc2)cc1,inactive,inactive,inactive
COc1cccc(-c2ccc3n(c2=O)C[C@@H]2[C@@H](CO)[C@H](C(=O)NCC4CC4)[C@H]3N2S(C)(=O)=O)c1,inactive,inactive,inactive
O=C(/C=C/c1ccc2c(c1)O[C@@H](C(=O)O)[C@@H](c1ccc(O)c(O)c1)O2)O[C@H](Cc1ccc(O)c(O)c1)C(=O)O,inactive,inactive,inactive
C[C@@H]1CN([C@H](C)CO)C(=O)c2cc(-c3cccnc3)cnc2O[C@H]1CN(C)C(=O)Nc1ccc2c(c1)OCO2,inactive,inactive,inactive
C[C@@H](C(=O)O)n1ncccc1=O,inactive,inactive,inactive
C[C@@H]1CCCCO[C@@H](CN(C)C(=O)c2ccncc2)[C@H](C)CN([C@H](C)CO)C(=O)c2cc(NC(=O)NC3CCCCC3)ccc2O1,inactive,inactive,inactive
COc1ccc([Si](C)(C)[C@H]2[C@H](CC(=O)N(CCO)Cc3ccccc3)O[C@@]3(C(=O)N(Cc4cccc(N5C(=O)c6cccc7cccc5c67)c4)c4ccccc43)[C@@H]2C)cc1,inactive,active,inactive
C[C@@H]1CCCCO[C@@H](CN(C)C(=O)Cc2ccccc2)[C@@H](C)CN([C@H](C)CO)C(=O)c2cc(NC(=O)Nc3ccc(F)cc3)ccc2O1,inactive,inactive,inactive
C[C@H](C(=O)O)c1ccc(C2CCCCC2)c2ccccc12,inactive,inactive,inactive
Cc1ccc(S(=O)(=O)N(C)C[C@@H]2Oc3ccc(NC(=O)Nc4cccc5ccccc45)cc3CC(=O)N([C@H](C)CO)C[C@@H]2C)cc1,inactive,active,inactive
O=C(C[C@@H]1CC[C@@H](NC(=O)c2cccnc2)[C@H](CO)O1)NCCN1CCCCC1,inactive,inactive,inactive
Cc1noc(C)c1NC(=O)N(C)C[C@H]1OCCCC[C@H](C)Oc2ccc(NS(=O)(=O)c3ccc(F)cc3)cc2C(=O)N([C@H](C)CO)C[C@@H]1C,inactive,inactive,inactive
CS(=O)(=O)N1C[C@H](NC(=O)c2cnccn2)[C@H]2OCCC[C@H]21,inactive,inactive,inactive
COc1ccc(S(=O)(=O)Nc2cccc3c2O[C@@H](CN(C)S(=O)(=O)c2ccc(OC)cc2)[C@@H](C)CN([C@H](C)CO)C3=O)cc1,inactive,inactive,inactive
CCOC(=O)C1=CC(OC(CC)CC)C(NC(C)=O)C(N)C1.O=P(O)(O)O (stereo unspecified),inactive,inactive,inactive
Nc1ccc(O)c(C(=O)O)c1,inactive,inactive,inactive
C[C@@H]1CN([C@H](C)CO)C(=O)c2cccc(NC(=O)c3ccc(-c4nccs4)cc3)c2O[C@H]1CN(C)C(=O)NC1CCCCC1,inactive,inactive,inactive

SMILES,cytotoxicity call [1],cytotoxicity call [2],growth inhibition call [3]
CC1(C)OC(=O)N(CCCC(=O)O)[C@@]1(C)O,inactive,inactive,inactive
C[C@H](CO)N1C[C@H](C)[C@H](CN(C)C(=O)Nc2cccc3ccccc23)Oc2c(NC(=O)c3ccc(-c4nccs4)cc3)cccc2C1=O,inactive,inactive,inactive
COc1c(C)c2c(c(O)c1CC=C(C)CCC(=O)O)C(=O)OC2,inactive,active,inactive
C[C@@H]1CCCCO[C@H](CN(C)C(=O)Nc2ccccc2)[C@H](C)CN([C@@H](C)CO)C(=O)c2cc(NC(=O)NC3CCCCC3)ccc2O1,inactive,inactive,inactive
C[C@H]1CN([C@@H](C)CO)C(=O)Cc2cc(NC(=O)C3CC3)ccc2O[C@H]1CN(C)S(=O)(=O)c1ccc(F)cc1,inactive,inactive,inactive
C[C@H]1CN([C@@H](C)CO)S(=O)(=O)c2ccc(C#Cc3ccccc3)cc2O[C@@H]1CN(C)S(=O)(=O)c1ccccc1F,inactive,inactive,inactive
C[C@H]1CN([C@@H](C)CO)C(=O)c2cc(NS(=O)(=O)c3cn(C)cn3)ccc2O[C@@H]1CN(C)S(=O)(=O)c1cn(C)cn1,inactive,inactive,inactive
O=C(O)[C@@H]1C2C=CC3(O2)C1C(=O)N1CCS(=O)[C@H]13 (stereo partly specified),inactive,inactive,inactive
CC(C)NC[C@H]1CCC(=O)N1,inactive,inactive,inactive
S=c1[nH]nc(C2CCCCC2)[nH]1,inactive,inactive,inactive
C[C@@H]1CN([C@H](C)CO)C(=O)c2cccc(NC(=O)c3ccc(-c4nccs4)cc3)c2O[C@H]1CN(C)S(=O)(=O)c1ccc(Cl)cc1,inactive,inactive,inactive
O=C(C[C@H]1CC[C@@H]2[C@H](COC[C@@H](O)CN2C(=O)c2ccncc2)O1)NCc1ccc(-c2ccccc2)cc1,inactive,inactive,inactive
Cc1ccc(S(=O)(=O)N2C[C@@H](O)COC[C@H]3O[C@H](CC(=O)NCc4ccc(C)c(C)c4)CC[C@@H]32)cc1,inactive,inactive,inactive
Cc1cc(C(=O)O)c(C#N)c(N)n1,inactive,inactive,inactive
Cc1ccc(S(=O)(=O)Nc2ccc3c(c2)C(=O)N([C@H](C)CO)C[C@H](C)[C@@H](CN(C)C(=O)Nc2ccccc2)OCCCC[C@H](C)O3)cc1,inactive,inactive,inactive
Cc1ccc(S(=O)(=O)c2c[nH]c(=O)[nH]2)cc1,inactive,inactive,inactive
NC(=O)c1ncn(C2OC(CO)C(O)C2O)c1N (stereo unspecified),inactive,inactive,inactive
COc1ccc(NC(=O)Nc2cccc3c2O[C@H](CN(C)CC2CCCCC2)[C@H](C)CN([C@@H](C)CO)C3=O)cc1,inactive,inactive,inactive
COc1ccc(NC(=O)N(C)C[C@H]2Oc3c(NC(=O)c4cc(C)nn4C)cccc3C(=O)N([C@H](C)CO)C[C@H]2C)cc1,inactive,inactive,inactive

SMILES,cytotoxicity call [1],cytotoxicity call [2],growth inhibition call [3]
Cc1ccc(S(=O)(=O)N(C)C[C@@H]2OCCCC[C@@H](C)Oc3ccc(NC(=O)C4CCCCC4)cc3C(=O)N([C@H](C)CO)C[C@H]2C)cc1,inactive,inactive,inactive
C[C@@H]1CN([C@H](C)CO)C(=O)c2cccc(NS(=O)(=O)c3cn(C)cn3)c2O[C@H]1CN(C)CC1CCCCC1,inactive,inactive,inactive
COc1ccc(S(=O)(=O)Nc2ccc3c(c2)C(=O)N([C@@H](C)CO)C[C@H](C)[C@H](CN(C)Cc2ccc(C(F)(F)F)cc2)OCCCC[C@H](C)O3)cc1,active,active,inactive
Oc1ccc(Cl)c2cccnc12,inactive,active,inactive
O=C(O)COCC(=O)NCc1ccco1,inactive,inactive,inactive
COc1cccc(S(=O)(=O)N2C[C@H](O)COC[C@H]3O[C@H](CC(=O)N4CCN(c5ccccc5)CC4)CC[C@@H]32)c1,inactive,inactive,inactive
C[C@@H]1CN([C@H](C)CO)C(=O)Cc2cc(NC(=O)CCC(F)(F)F)ccc2O[C@@H]1CN(C)Cc1ccc(Oc2ccccc2)cc1,inactive,active,inactive
C[C@@H]1CN([C@@H](C)CO)S(=O)(=O)c2ccc(C#CCN(C)C)cc2O[C@H]1CN(C)C(=O)Nc1ccccc1F,inactive,inactive,inactive
C[C@H](CO)N1C[C@H](C)[C@H](CN(C)Cc2ccc(C(=O)Nc3ccccc3N)cc2)Oc2c(NS(=O)(=O)c3cn(C)cn3)cccc2C1=O,inactive,inactive,inactive
COc1ccc(CN(C)C[C@@H]2Oc3ccc(NS(=O)(=O)c4c(C)noc4C)cc3CC(=O)N([C@H](C)CO)C[C@@H]2C)cc1,inactive,inactive,inactive
C[C@@H]1CN([C@@H](C)CO)C(=O)c2cccc(NC(=O)c3cnccn3)c2O[C@H]1CN(C)S(=O)(=O)c1ccc(Cl)cc1,inactive,inactive,inactive
Cc1ccc(S(=O)(=O)N(C)C[C@H]2Oc3ccc(N(C)C)cc3CC(=O)N([C@@H](C)CO)C[C@@H]2C)cc1,inactive,inactive,inactive
C[C@@H]1CN([C@H](C)CO)C(=O)Cc2cc(NC(=O)Nc3ccc(C(F)(F)F)cc3)ccc2O[C@H]1CN(C)Cc1ccc(C(=O)O)cc1,inactive,inactive,inactive
COc1ccc(CN(C)C[C@H]2OCCCC[C@H](C)Oc3ccc(NC(=O)Nc4ccccc4)cc3C(=O)N([C@@H](C)CO)C[C@@H]2C)cc1,inactive,inactive,inactive
C[C@@H]1CN([C@@H](C)CO)C(=O)c2c(c3ccccc3n2C)-c2ccccc2CO[C@H]1CN(C)C(=O)c1cc(Cl)cc(Cl)c1,inactive,inactive,inactive
Cc1ccc(S(=O)(=O)N(C)C[C@@H]2Oc3c(NS(=O)(=O)c4ccc(F)cc4)cccc3C(=O)N([C@@H](C)CO)C[C@H]2C)cc1,inactive,inactive,inactive
C[C@H]1CCCCO[C@H](CN(C)C(=O)Nc2ccc3c(c2)OCO3)[C@@H](C)CN([C@@H](C)CO)C(=O)c2cc(NC(=O)CCC(F)(F)F)ccc2O1,inactive,inactive,inactive
Cc1noc(C)c1NC(=O)Nc1cccc2c1O[C@H](CN(C)Cc1ccc(Cl)c(Cl)c1)[C@H](C)CN([C@@H](C)CO)C2=O,inactive,inactive,inactive
Cc1ccccc1S(=O)(=O)N1C[C@H](O)COC[C@H]2O[C@H](CC(=O)NCCc3ccccc3)CC[C@@H]21,inactive,inactive,inactive
